Results are given in words; binding and its absence hold for the method and conditions named. Binding seen in cells or lysates may run through a third protein. Some entries that bind do so weakly or less than the wild type. For part of these data: Tags and fused reporters may be left off the sequences shown.

Protein sequences, listed by entry. Tags and fused reporters are not part of them.
UniProt P46937: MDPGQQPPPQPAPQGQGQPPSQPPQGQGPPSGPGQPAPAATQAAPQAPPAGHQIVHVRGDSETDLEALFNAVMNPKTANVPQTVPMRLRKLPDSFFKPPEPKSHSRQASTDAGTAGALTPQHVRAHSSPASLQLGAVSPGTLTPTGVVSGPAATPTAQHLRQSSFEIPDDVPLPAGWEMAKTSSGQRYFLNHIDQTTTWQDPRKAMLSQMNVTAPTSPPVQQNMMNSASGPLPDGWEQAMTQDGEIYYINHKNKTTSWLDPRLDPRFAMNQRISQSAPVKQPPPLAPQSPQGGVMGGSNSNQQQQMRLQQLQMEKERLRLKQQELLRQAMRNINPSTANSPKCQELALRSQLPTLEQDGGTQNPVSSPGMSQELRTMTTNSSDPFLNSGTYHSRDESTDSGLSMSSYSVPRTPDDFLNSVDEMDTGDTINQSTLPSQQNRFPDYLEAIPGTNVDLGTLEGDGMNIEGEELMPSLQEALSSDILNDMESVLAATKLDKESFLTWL
UniProt Q9Y6K9: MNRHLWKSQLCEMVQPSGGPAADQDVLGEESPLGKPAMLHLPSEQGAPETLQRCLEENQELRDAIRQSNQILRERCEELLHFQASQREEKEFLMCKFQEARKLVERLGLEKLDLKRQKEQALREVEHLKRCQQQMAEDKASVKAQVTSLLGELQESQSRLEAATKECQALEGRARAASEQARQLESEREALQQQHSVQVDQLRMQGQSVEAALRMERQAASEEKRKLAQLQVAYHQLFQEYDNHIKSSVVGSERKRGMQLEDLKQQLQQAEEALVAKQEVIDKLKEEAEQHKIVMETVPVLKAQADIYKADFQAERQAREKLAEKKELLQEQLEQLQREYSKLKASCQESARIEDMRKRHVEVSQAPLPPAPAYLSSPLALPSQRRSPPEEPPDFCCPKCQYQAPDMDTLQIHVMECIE
UniProt Q9Y297: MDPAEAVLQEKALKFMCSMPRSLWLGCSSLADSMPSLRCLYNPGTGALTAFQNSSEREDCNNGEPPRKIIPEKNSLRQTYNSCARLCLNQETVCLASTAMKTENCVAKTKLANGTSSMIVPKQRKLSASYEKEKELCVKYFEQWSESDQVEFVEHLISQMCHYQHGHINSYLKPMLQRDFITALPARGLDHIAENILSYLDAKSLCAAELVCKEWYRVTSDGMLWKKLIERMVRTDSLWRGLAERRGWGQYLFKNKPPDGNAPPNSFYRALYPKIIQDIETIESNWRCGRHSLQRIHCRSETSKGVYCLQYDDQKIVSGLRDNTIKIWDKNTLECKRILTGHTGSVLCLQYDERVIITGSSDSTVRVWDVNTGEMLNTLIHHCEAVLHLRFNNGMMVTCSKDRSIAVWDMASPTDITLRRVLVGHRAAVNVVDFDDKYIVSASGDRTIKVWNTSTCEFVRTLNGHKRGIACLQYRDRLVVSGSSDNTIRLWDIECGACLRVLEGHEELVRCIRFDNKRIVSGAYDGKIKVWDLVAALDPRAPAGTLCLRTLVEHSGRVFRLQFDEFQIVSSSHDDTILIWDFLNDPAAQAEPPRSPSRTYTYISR

Assay [1] deals with YAP (overexpressed, tag not stated for these co-IPs) (UniProt P46937). The assay is described as follows: co-IP; tagged proteins overexpressed in HEK293T for 24 h; lysate with anti-Flag M2 magnetic beads or anti-Myc agarose, 4 °C, 8 h; five washes; immunoblot.
Assay [2] deals with YAP (in HEK293A cells) (UniProt P46937). In words: co-IP; YAP and β-TRCP in wild-type HEK293A cells.
Assay [3] shares this target. The assay is described as follows: co-IP; YAP and β-TRCP in TAK1-KO HEK293A cells.
In the next assay the target is T1, Flag-tagged TAK1 (UniProt O43318).
T1 sequence: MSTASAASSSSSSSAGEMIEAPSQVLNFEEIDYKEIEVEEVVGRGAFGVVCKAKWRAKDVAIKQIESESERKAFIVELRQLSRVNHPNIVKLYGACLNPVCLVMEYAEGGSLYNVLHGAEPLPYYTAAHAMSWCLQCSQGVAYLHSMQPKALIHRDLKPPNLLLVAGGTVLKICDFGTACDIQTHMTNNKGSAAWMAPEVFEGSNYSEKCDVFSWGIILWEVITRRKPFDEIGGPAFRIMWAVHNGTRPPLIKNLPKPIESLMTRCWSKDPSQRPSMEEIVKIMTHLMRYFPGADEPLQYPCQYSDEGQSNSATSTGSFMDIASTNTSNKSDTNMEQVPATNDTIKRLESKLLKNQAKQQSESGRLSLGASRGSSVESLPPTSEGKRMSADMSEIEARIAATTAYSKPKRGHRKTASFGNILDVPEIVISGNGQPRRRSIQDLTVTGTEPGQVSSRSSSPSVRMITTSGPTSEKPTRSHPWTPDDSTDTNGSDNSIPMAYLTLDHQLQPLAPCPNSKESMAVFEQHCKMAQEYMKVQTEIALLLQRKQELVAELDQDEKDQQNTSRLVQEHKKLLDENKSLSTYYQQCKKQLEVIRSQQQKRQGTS
In words: co-IP; tagged proteins overexpressed in HEK293T for 24 h; lysate with anti-Flag M2 magnetic beads or anti-Myc agarose, 4 °C, 8 h; five washes; immunoblot.

The target in assay [4] is YAP (overexpressed, tag not stated for these co-IPs) (UniProt P46937). In words: co-IP; YAP and β-TRCP in HEK293T cells with overexpression of TAK1 or kinase-dead TAK1 (TAK1-KD).
The target in assay [5] is YAP (endogenous) (human (endogenous in HEK293T)) (UniProt P46937). In words: co-IP; immunoprecipitation with anti-YAP antibody of endogenous proteins from HEK293T cells.
For assay [6], the target named is T2, IKKα (inhibitor of nuclear factor kappa-B kinase subunit alpha), O15111.
T2 chain: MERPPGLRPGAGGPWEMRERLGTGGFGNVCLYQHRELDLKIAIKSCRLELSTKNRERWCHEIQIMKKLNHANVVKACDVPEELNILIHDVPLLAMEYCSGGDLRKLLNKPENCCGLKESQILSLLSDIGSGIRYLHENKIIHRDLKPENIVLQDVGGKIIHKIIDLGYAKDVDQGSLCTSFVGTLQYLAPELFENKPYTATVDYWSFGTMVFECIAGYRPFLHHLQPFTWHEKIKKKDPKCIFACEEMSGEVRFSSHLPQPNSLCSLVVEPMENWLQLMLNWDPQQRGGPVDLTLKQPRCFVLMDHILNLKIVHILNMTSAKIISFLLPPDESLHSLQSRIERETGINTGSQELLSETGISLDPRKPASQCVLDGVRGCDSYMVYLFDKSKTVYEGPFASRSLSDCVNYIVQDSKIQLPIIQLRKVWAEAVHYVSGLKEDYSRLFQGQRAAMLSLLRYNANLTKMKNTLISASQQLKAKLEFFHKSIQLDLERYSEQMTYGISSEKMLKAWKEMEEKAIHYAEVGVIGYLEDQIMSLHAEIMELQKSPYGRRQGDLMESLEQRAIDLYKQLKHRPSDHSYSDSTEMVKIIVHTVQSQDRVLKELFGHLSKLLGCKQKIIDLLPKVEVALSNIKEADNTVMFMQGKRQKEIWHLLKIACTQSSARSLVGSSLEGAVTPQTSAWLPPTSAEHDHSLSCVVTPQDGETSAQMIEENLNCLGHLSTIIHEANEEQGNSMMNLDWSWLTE
In words: co-IP; IKKα and TAK1 in HEK293T cells with or without overexpression of YAP. To be noted: remark: other sources report otherwise.

A further assay deals with Flag-tagged YAP (UniProt P46937). In words: co-IP; tagged proteins overexpressed in HEK293T for 24 h; lysate with anti-Flag M2 magnetic beads or anti-Myc agarose, 4 °C, 8 h; five washes; immunoblot.

IKKγ (from UniProt Q9Y6K9 1-419): in assay [1], the binding result is “binds”.
For the molecule “β-TRCP (in HEK293A cells) (from UniProt Q9Y297 1-605)”, the binding result with YAP (in HEK293A cells) [2] is given as “binds”; with YAP (in HEK293A cells) [3] it was “no binding (condition: in TAK1-KO HEK293A cells)”.
For “YAP (overexpressed, tag not stated for these co-IPs) (from UniProt P46937 1-504)”, in the assay with Flag-tagged TAK1, the binding entry is on record as “binds”.
In the case of β-TRCP (from UniProt Q9Y297 1-605), the binding entry in assay [4] is given as “binds”.

B1: TAK1 (endogenous) (enzyme, UniProt O43318 1-606)
chain: MSTASAASSSSSSSAGEMIEAPSQVLNFEEIDYKEIEVEEVVGRGAFGVVCKAKWRAKDVAIKQIESESERKAFIVELRQLSRVNHPNIVKLYGACLNPVCLVMEYAEGGSLYNVLHGAEPLPYYTAAHAMSWCLQCSQGVAYLHSMQPKALIHRDLKPPNLLLVAGGTVLKICDFGTACDIQTHMTNNKGSAAWMAPEVFEGSNYSEKCDVFSWGIILWEVITRRKPFDEIGGPAFRIMWAVHNGTRPPLIKNLPKPIESLMTRCWSKDPSQRPSMEEIVKIMTHLMRYFPGADEPLQYPCQYSDEGQSNSATSTGSFMDIASTNTSNKSDTNMEQVPATNDTIKRLESKLLKNQAKQQSESGRLSLGASRGSSVESLPPTSEGKRMSADMSEIEARIAATTAYSKPKRGHRKTASFGNILDVPEIVISGNGQPRRRSIQDLTVTGTEPGQVSSRSSSPSVRMITTSGPTSEKPTRSHPWTPDDSTDTNGSDNSIPMAYLTLDHQLQPLAPCPNSKESMAVFEQHCKMAQEYMKVQTEIALLLQRKQELVAELDQDEKDQQNTSRLVQEHKKLLDENKSLSTYYQQCKKQLEVIRSQQQKRQGTS
With B1, the binding result in assay [5] was “binds”.

B2: TAK1 (overexpressed, tag not stated for these co-IPs), O43318 1-606 (enzyme)
chain: MSTASAASSSSSSSAGEMIEAPSQVLNFEEIDYKEIEVEEVVGRGAFGVVCKAKWRAKDVAIKQIESESERKAFIVELRQLSRVNHPNIVKLYGACLNPVCLVMEYAEGGSLYNVLHGAEPLPYYTAAHAMSWCLQCSQGVAYLHSMQPKALIHRDLKPPNLLLVAGGTVLKICDFGTACDIQTHMTNNKGSAAWMAPEVFEGSNYSEKCDVFSWGIILWEVITRRKPFDEIGGPAFRIMWAVHNGTRPPLIKNLPKPIESLMTRCWSKDPSQRPSMEEIVKIMTHLMRYFPGADEPLQYPCQYSDEGQSNSATSTGSFMDIASTNTSNKSDTNMEQVPATNDTIKRLESKLLKNQAKQQSESGRLSLGASRGSSVESLPPTSEGKRMSADMSEIEARIAATTAYSKPKRGHRKTASFGNILDVPEIVISGNGQPRRRSIQDLTVTGTEPGQVSSRSSSPSVRMITTSGPTSEKPTRSHPWTPDDSTDTNGSDNSIPMAYLTLDHQLQPLAPCPNSKESMAVFEQHCKMAQEYMKVQTEIALLLQRKQELVAELDQDEKDQQNTSRLVQEHKKLLDENKSLSTYYQQCKKQLEVIRSQQQKRQGTS
For the molecule B2, in assay [6], the binding result is on record as “binds”.

B3: TAK1 (overexpressed, tag not stated for these co-IPs) (enzyme, UniProt O43318 1-606)
chain: MSTASAASSSSSSSAGEMIEAPSQVLNFEEIDYKEIEVEEVVGRGAFGVVCKAKWRAKDVAIKQIESESERKAFIVELRQLSRVNHPNIVKLYGACLNPVCLVMEYAEGGSLYNVLHGAEPLPYYTAAHAMSWCLQCSQGVAYLHSMQPKALIHRDLKPPNLLLVAGGTVLKICDFGTACDIQTHMTNNKGSAAWMAPEVFEGSNYSEKCDVFSWGIILWEVITRRKPFDEIGGPAFRIMWAVHNGTRPPLIKNLPKPIESLMTRCWSKDPSQRPSMEEIVKIMTHLMRYFPGADEPLQYPCQYSDEGQSNSATSTGSFMDIASTNTSNKSDTNMEQVPATNDTIKRLESKLLKNQAKQQSESGRLSLGASRGSSVESLPPTSEGKRMSADMSEIEARIAATTAYSKPKRGHRKTASFGNILDVPEIVISGNGQPRRRSIQDLTVTGTEPGQVSSRSSSPSVRMITTSGPTSEKPTRSHPWTPDDSTDTNGSDNSIPMAYLTLDHQLQPLAPCPNSKESMAVFEQHCKMAQEYMKVQTEIALLLQRKQELVAELDQDEKDQQNTSRLVQEHKKLLDENKSLSTYYQQCKKQLEVIRSQQQKRQGTS
In the case of B3, in the assay with Flag-tagged YAP, the binding entry is given as “binds”.

B4: IKKβ (inhibitor of nuclear factor kappa-B kinase subunit beta) (enzyme, UniProt O14920 1-756)
chain: MSWSPSLTTQTCGAWEMKERLGTGGFGNVIRWHNQETGEQIAIKQCRQELSPRNRERWCLEIQIMRRLTHPNVVAARDVPEGMQNLAPNDLPLLAMEYCQGGDLRKYLNQFENCCGLREGAILTLLSDIASALRYLHENRIIHRDLKPENIVLQQGEQRLIHKIIDLGYAKELDQGSLCTSFVGTLQYLAPELLEQQKYTVTVDYWSFGTLAFECITGFRPFLPNWQPVQWHSKVRQKSEVDIVVSEDLNGTVKFSSSLPYPNNLNSVLAERLEKWLQLMLMWHPRQRGTDPTYGPNGCFKALDDILNLKLVHILNMVTGTIHTYPVTEDESLQSLKARIQQDTGIPEEDQELLQEAGLALIPDKPATQCISDGKLNEGHTLDMDLVFLFDNSKITYETQISPRPQPESVSCILQEPKRNLAFFQLRKVWGQVWHSIQTLKEDCNRLQQGQRAAMMNLLRNNSCLSKMKNSMASMSQQLKAKLDFFKTSIQIDLEKYSEQTEFGITSDKLLLAWREMEQAVELCGRENEVKLLVERMMALQTDIVDLQRSPMGRKQGGTLDDLEEQARELYRRLREKPRDQRTEGDSQEMVRLLLQAIQSFEKKVRVIYTQLSKTVVCKQKALELLPKVEEVVSLMNEDEKTVVRLQEKRQKELWNLLKIACSKVRGPVSGSPDSMNASRLSQPGQLMSQPSTASNSLPEPAKKSEELVAEAHNLCTLLENAIQDTVREQDQSFTALDWSWLQTEEEEHSCLEQAS
As to B4, the binding entry in assay [1] is listed as “binds”.
